# Measured values reported in PMC4336329 (PLoS ONE, 2015).
# Out of some 310,000 compounds screened, about 2,200 (0.71%) showed an effect of 50% or more. The effect is printed as a negative number. The list shows a part of the results.
# Target: human ether-à-go-go-related gene (hERG) potassium channel (human, UniProt Q12809)
# Experiment: primary screen, population patch clamp on CHO cells stably expressing hERG
# Sequence of human ether-à-go-go-related gene (hERG) potassium channel (Q12809 whole entry, looked up): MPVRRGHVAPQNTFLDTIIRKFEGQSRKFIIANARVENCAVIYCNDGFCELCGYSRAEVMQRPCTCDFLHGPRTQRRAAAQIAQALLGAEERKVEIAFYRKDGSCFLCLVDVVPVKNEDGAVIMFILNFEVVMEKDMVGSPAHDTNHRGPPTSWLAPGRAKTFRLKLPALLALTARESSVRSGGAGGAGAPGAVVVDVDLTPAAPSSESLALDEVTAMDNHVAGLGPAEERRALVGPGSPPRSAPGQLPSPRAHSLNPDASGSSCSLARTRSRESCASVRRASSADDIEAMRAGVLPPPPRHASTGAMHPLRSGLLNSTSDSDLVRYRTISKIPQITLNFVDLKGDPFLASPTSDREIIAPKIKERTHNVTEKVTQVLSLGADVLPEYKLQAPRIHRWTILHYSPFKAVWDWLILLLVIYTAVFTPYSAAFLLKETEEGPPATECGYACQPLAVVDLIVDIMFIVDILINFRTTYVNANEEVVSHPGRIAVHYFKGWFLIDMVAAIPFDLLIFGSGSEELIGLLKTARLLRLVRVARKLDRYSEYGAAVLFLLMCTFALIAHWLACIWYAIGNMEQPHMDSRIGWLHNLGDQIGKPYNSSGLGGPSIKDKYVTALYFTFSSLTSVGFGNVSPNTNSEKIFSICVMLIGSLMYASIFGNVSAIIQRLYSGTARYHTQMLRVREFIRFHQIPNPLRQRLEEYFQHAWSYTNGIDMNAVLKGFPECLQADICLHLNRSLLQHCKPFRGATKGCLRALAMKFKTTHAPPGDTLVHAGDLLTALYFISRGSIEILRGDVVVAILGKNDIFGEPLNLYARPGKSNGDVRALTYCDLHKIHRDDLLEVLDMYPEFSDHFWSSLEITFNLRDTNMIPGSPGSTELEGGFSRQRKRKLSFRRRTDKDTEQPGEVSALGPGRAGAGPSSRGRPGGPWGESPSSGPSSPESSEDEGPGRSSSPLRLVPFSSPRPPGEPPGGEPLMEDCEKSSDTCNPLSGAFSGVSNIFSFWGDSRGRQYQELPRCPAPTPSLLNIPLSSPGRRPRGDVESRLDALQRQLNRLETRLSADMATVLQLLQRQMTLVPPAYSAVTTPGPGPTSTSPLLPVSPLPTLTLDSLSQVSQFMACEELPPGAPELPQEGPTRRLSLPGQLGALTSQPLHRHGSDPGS
row,SMILES,"hERG current change (%, negative = inhibition) at 1uM"
1,COc1ccc(/C=C2\CCCCC2=O)cc1,3.66%
2,COC(=O)C1CCN(c2cc(=O)n(-c3ccccc3Cl)c(=O)[nH]2)CC1,9.23%
3,COc1cccc(CN(C)Cc2nc(C3CC3)no2)c1,15.2%
4,Cc1c(S(=O)(=O)NCc2ccccc2)c(=O)n(C)c(=O)n1C,13.5%
5,COc1ccc(NC(=O)C(c2ccccc2)N(C)C(=O)c2cnccn2)cc1 (stereo not shown),11.4%
6,c1coc(-c2ccnc(-c3ccncc3)n2)c1,12.7%
7,Cc1cccc(C)c1NC(=O)C1CSC2(C)CCC(=O)N12 (stereo not shown),6.49%
8,CCCCC(=O)Nc1ccc(C(=O)N2CCN(c3ccccc3OC)CC2)cc1,4.8%
9,Cl.O=C(CN1CCN(Cc2ccccc2)CC1)Nc1ccc2c(c1)CCC2,-5.24%
10,CC1(CCc2ccc3c(c2)OCO3)NC(=O)c2ccccc2N1 (stereo not shown),0.0141%
11,C=CCSC(CC)(CC)C(N)=O,9.62%
12,CCc1cc2c(SCC#N)ncnc2s1,9.82%
13,CCOC1=NC(C(=O)O)c2ccccc2/C(=C(/C)Cl)N1 (stereo not shown),7.64%
14,CCCCCCCCC/C(=N\O)c1ccccn1,7.06%
15,CCNc1nc(NC(C)C)nc(OCC)n1,-0.429%
16,O=C(NC(=C(Cl)Cl)S(=O)(=O)c1ccc(Cl)cc1)c1ccccc1,12.8%
17,Cc1cc(-c2ccccc2C(=O)O)on1,12.2%
18,O=C(Nc1ccc2ccccc2c1)c1cccc([N+](=O)[O-])c1,18.6%
19,CCC(=O)NS(=O)(=O)c1ccc(N=NN2CCCCC2)cc1,10.2%
20,Cc1cc(NC(=O)c2cccc(C(=O)Nc3cc(C)on3)n2)no1,12.4%
21,Cn1c(-c2ccc(Br)cc2)cnc1NCc1ccc(C#N)cc1.O=C(O)C(=O)O,-77.2%
22,Cc1ccnc(NC(=O)CCCOc2ccc(Cl)cc2C)c1,15.8%
23,O=Cc1cnc2ccccc2c1-c1ccccc1,8.4%

row,SMILES,"hERG current change (%, negative = inhibition) at 1uM"
1,CN1CCN(C2=Nc3c(Cl)cc(Cl)c4cccc2c34)CC1,5.39%
2,CC(OC(=O)c1cccc(N2C(=O)c3ccccc3C2=O)c1)C(=O)Nc1ccc(N(C)C)cc1 (stereo not shown),14.4%
3,COCCOc1cc(NC(=O)c2cccc(OC)c2)c(Cl)cc1Cl,11.4%
4,CC1=NOC2(C1)/C(=N/O)CCC/C2=N\O (stereo not shown),7.43%
5,COc1cc2ccccc2cc1C(=O)N1CCN(c2ccccc2O)CC1,-7.84%
6,CCCCCOc1ccc(NS(C)(=O)=O)cc1,0.876%
7,CCn1cc(C(=O)OCC(=O)Nc2ccc(S(=O)(=O)N3CCCC3)cc2)c(=O)c2ccc(C)nc21,16.4%
8,CC(C)(C)NC(=O)COC(=O)c1ccc(Cl)nc1,3.28%
9,Cc1oc(-c2ccccc2F)nc1CSCC(=O)NC1CCC(C)CC1 (stereo not shown),18.4%
10,CC1=C(C(=O)OCC2CCCO2)C(c2ccccc2)C2=C(CCCC2=O)N1 (stereo not shown),9.48%
11,CN(C)/C=C1\NC(=S)N(c2ccccc2)C1=O,16.9%
12,CCC1C(=O)N=C(SCC(=O)Nc2ccccc2)NC1=O (stereo not shown),9.52%
13,N#Cc1cnn2ccc(-c3ccc4c(c3)CCC4)nc12,17.1%
14,CC(=O)c1c(C)[nH]c(C(=O)Nc2ccc(Cl)c(S(=O)(=O)N(C)C)c2)c1C,5.16%
15,Cc1c(C(=O)NC2CCC(C)CC2)oc2ccccc12 (stereo not shown),4.4%
16,COc1ccc(NC(=O)CN(C)C(=O)CCCc2nc3ccccc3s2)cc1,-15.7%
17,O=C(Oc1ccc(Cl)c2cccnc12)c1cccc([N+](=O)[O-])c1,-2.35%
18,Cn1c(Cc2ccccc2)nnc1SCC(=O)Nc1cccc(S(=O)(=O)NC2=NCCCCC2)c1,0.421%
19,CSc1cnn(Cc2ccccc2)c(=O)c1SCc1ccccc1,5.14%
20,Nc1n[nH]c(C2CCCCC2)n1,18.7%
21,O=[N+]([O-])c1ccc2c(c1)Nc1nc3ccccc3nc1N2,12.7%
22,CCn1nc(NS(=O)(=O)c2ccc(C)cc2)c2cc3ccccc3nc21,15.2%
23,Cc1ccc(NC(=O)NC2CCCc3ccccc32)cc1 (stereo not shown),4.74%

row,SMILES,"hERG current change (%, negative = inhibition) at 1uM"
1,COc1ccc(C(=O)N2CCN(Cc3cc(OC)ccc3OC)CC2)cc1.O=C(O)C(=O)O,-12.2%
2,Cc1ccc(OCC(=O)NC(=S)Nc2ccc(Br)cn2)cc1,15.3%
3,CCOC(=O)c1c(-c2ccccc2)oc2ccc(OCC(O)CNCCN(C)C)cc12 (stereo not shown),9.84%
4,CCOC(=O)c1c(NC(=O)CN2CCN(C(=O)c3ccco3)CC2)sc(C(N)=O)c1C,5.04%
5,CCC(=O)Nc1c(C)c(CC)nc2ccccc12,-6.64%
6,COc1cccc(C2(O)CCN(C(=O)Cc3cccnc3)CC2)c1,14.1%
7,Cc1ccccc1NC(=O)c1sc2nc[nH]c(=O)c2c1C,13.9%
8,Cn1c(Cn2c(=O)sc3ccccc32)nnc1SCC(=O)NCCc1ccccc1,3.23%
9,CC1CCCCC1NC(=O)CSC1=Nc2ccccc2C2CC=NN12 (stereo not shown),0.298%
10,CCCCN(CCCC)S(=O)(=O)c1ccc(C(=O)Nc2nnc(CSC)o2)cc1,3.39%
11,COC(=O)NNC(=S)NCc1ccccc1,7.51%
12,Cc1ccc(NC(=O)CSc2n[nH]c(-c3ccncc3)n2)cc1C,15.6%
13,CCc1ccc(N(C(=O)c2snc(C(N)=O)c2N)C(C(=O)NCCC(C)C)c2c[nH]c3ccccc23)cc1 (stereo not shown),2.59%
14,COc1ccc(NC(=O)CC2SC(=NCC3CCCO3)NC2=O)c([N+](=O)[O-])c1 (stereo not shown),4.6%
15,CC(C)Sc1oc(-c2ccco2)nc1S(=O)(=O)c1ccc(F)cc1,2.49%
16,COC(=O)Cc1ccc(NC(=S)N2CCN(c3cc(Cl)ccc3C)CC2)cc1,17.4%
17,COc1cc(F)ccc1S(=O)(=O)N1CCN(C23CC4CC(CC(C4)C2)C3)CC1,7.16%
18,COc1ccccc1NC(=O)N[C@@H](Cc1c[nH]c2ccccc12)C(=O)NN,11.6%
19,CC(C)CNc1oc(-c2ccc(F)cc2)nc1C#N,11.8%
20,C/C(=N\NC(=O)c1ccn(C)n1)c1ccco1,4.8%
21,CC(C)c1ccc(-n2c(O)c(/C=N/N3CCOCC3)c(=O)[nH]c2=S)cc1,9.57%
22,COc1cc(/C=C2/C(=N)N3OC(C)=CC3=NC2=O)ccc1OCCOc1ccc(C)cc1,16.1%
23,Nc1ncc(-c2cc3ccccc3oc2=O)s1,9.89%

row,SMILES,"hERG current change (%, negative = inhibition) at 1uM"
1,COC(=O)Nc1ccc(S(=O)(=O)N2CCC(Cc3ccccc3)CC2)cc1,1.02%
2,O=C(Nn1c(C2CCCCC2)nc2ccccc2c1=O)c1ccc(Cl)c([N+](=O)[O-])c1,7.58%
3,Cc1ccc(CN2CC(C(=O)N(C)CC(=O)Nc3cccc(F)c3)CC2=O)cc1 (stereo not shown),2.13%
4,COc1cc(/C=N/NC(=O)c2ccccn2)ccc1OC(=O)c1ccccc1Br,12%
5,COC(=O)C1=C[C@@H](C(=O)OC)[C@@H]2C3=C(C(=O)C2(C)C)[C@H](c2ccccc2)[C@@H]2C(=O)N(C)C(=O)[C@@H]2[C@@H]3C1,3.08%
6,CCS(=O)(=O)N1CCN(S(=O)(=O)c2ccc(Cl)s2)CC1,6.15%
7,CSc1cccc(N2C(=O)C3CCCN3C2=S)c1 (stereo not shown),14.4%
8,COc1ccccc1/C=C/C(=O)OCC(=O)N1CCc2ccccc21,11.8%
9,COc1cccc(NC(=O)c2ccco2)c1,6.98%
10,COc1cccc(C2=CC(=O)C[C@H](c3ccc(Cl)cc3)C2)c1OC,16.2%
11,COc1ccc(O)c(C(=O)c2cnn(C(=O)c3cccc(S(=O)(=O)N4CCOCC4)c3)c2)c1,3%
12,CCN(CC)C(=O)c1cncc(C(=O)N(CC)CC)c1-c1ccccc1,4.67%
13,CSCc1ccc(C(=O)NC2CC(C)(C)Cc3c2cnn3-c2ccc(F)cc2)o1 (stereo not shown),9.02%
14,O=C1C(=O)N(Cc2cccnc2)C(c2ccccn2)/C1=C(/O)c1ccc(F)cc1 (stereo not shown),4.9%
15,CCn1c(=O)c2ccccc2n2c(SCC(=O)N3CCc4ccccc4C3)nnc12,-3.75%
16,Cc1csc(NC(=O)CSC2=NS(=O)(=O)c3cc(F)ccc3N2)n1,16.1%
17,Cc1[nH]c2ccccc2c1/C=N/NC(N)=S,11.4%
18,Cc1ccc(OC2CCN(C(=O)C3CCC(=O)N(C4CC4)C3)CC2)cc1 (stereo not shown),2.65%
19,NC(=O)C1(N2CCCCC2)CCN(CC(=O)Nc2ccc(Oc3ccccc3)cc2)CC1,-35.5%
20,CN(C)c1cccc(C(=O)Nc2cc(C(F)(F)F)ccc2-n2cnc3ccccc32)c1,2.72%
21,Cc1ccccc1C(=O)NCCCNC(=O)c1cnccn1,19.3%
22,CCc1c(C)sc(NC(=S)Nc2nc(C)cc(C)n2)c1C(=O)OC,16.4%
